The results in this text go back to PubChem BioAssay AID602313 (National Center for Advancing Translational Sciences (NCATS), 2012).

In all, about 390,000 compounds went through this assay and about 760 (0.19%) were called active. About 3% were inconclusive and are not listed. The call rests on the fitted dose curve; in most records, active means well fitted inhibition curve with a large enough effect; inconclusive means small, poorly fitted or top-dose-only effect; inactive means flat fitted curve, though single readings scatter. The entries are a selection whose mix differs from that of the whole data set.
Potency means the concentration at half of the fitted maximal effect.

This experiment is described as follows: qHTS for Inhibitors of Vif-A3F Interactions: qHTS. Further: nearly all actives have a fitted effect of over 65% in size. On activity, negative = active: % of control where 0% means no effect. Conditions: HeLa A3F-eYFP + Vif (tagged APOBEC3F with the HIV-1 protein that degrades it), YFP fluorescence increase; series mostly up to 46.1 µM; activity, negative = active: at the top concentration. The source says:
The recent discovery and characterization of host restriction factors, which provide a potent defense to invading retroviruses, has provided new targets for antiviral drug development. APOBEC3G (A3G) and APOBEC3F (A3F) are potent cytidine deaminases that block HIV-1 replication; HIV-1 expresses the Vif protein, which counteracts A3G and A3F by binding to them and inducing their proteasomal degradation. The Vif-A3G and Vif-A3F interactions provide two potential targets for development of small molecules which can interfere with the ability of Vif to degrade A3G or A3F. […] To identify inhibitors that can interfere with Vif mediated degradation of A3G and A3F, we have developed Hela cell lines that stably express A3G or A3F tagged with eYFP at the C-terminal end (A3G-eYFP or A3F-eYFP, respectively) and Vif. In the absence of an inhibitor, Vif induces degradation of A3G-eYFP and A3F-eYFP, and the cells are not fluorescent. In the presence of an inhibitor, it is expected that Vif will be unable to degrade A3G-eYFP and/or A3F-eYFP, resulting in an increase in yellow fluorescence. In this assays Vif A3F was screened against the Molecular Library Small Molecule Repository (MLSMR). NIH Chemical Genomics Center [NCGC] NIH Molecular Libraries Probe Centers Network [MLPCN] MLPCN Grant: MH093245 Assay Submitter (PI): Vinay Pathak, National Cancer Institute
5 uL of 700 cells/well of A3F-YFP cells are dispensed into black, clear bottom plates. The plates are incubated overnight at 37 deg C. 23 nL of compounds are added by pintool. The plates are incubated overnight at 37 deg C and then read on the TTP Acumen (Ex 488/ Em 500-530).
For orientation: In qHTS, concentration-response curves come from the screen itself.
For `CCN1CCN(Cc2ccc(NC(=O)c3cc(NC(=O)c4cc5cccc(OC)c5o4)cc(OC)c3)cc2C(F)(F)F)CC1`, the “activity, negative = active” value was inactive: -9.58%.

For the molecule `Cc1ccc2c(C)nc(/N=C(\N)NC(=O)N3c4ccccc4Sc4ccccc43)nc2c1`, the “activity, negative = active” value is inactive: -11.4%.

`O=C(/C=C/c1ccc(-c2cccc([N+](=O)[O-])c2)o1)N1CCOCC1`: the “activity, negative = active” value is inactive: 11.3%.

With `N#Cc1c(NC(=O)/C=C/C(=O)O)sc2c1CCN(Cc1ccccc1)C2`, the Potency is active: 25.1 µM.

For the molecule `CC[C@]12CCCN3CCc4c(n(c5ccccc45)[C@](O)(C(=O)OC)C1)[C@@H]32`, the “activity, negative = active” value was inactive: -1.87%.

For `CCOc1ccc(CCNC(=O)CSc2cc(=O)n(C)c3ccccc23)cc1OCC`, the “activity, negative = active” value was inactive: 3.3%.

On to `Cc1cccc(NC(=O)c2cc(S(=O)(=O)N3CCC4(CC3)OCCO4)ccc2F)c1`, for which the “activity, negative = active” value is inactive: 11.9%.

As for `Cn1cccc1/C=C1/SC(=S)N(CC(=O)O)C1=O`, the “activity, negative = active” value is inactive: -13%.

On to `CCCCN(C(=O)c1ccc([N+](=O)[O-])s1)c1c(N)n(CCCC)c(=O)[nH]c1=O`, for which the Potency is active: 12.6 µM.

As to `Cc1nc(SCc2cccc(C(=O)O)c2)nc2c1CCCC2`, the “activity, negative = active” value was inactive: 15.1%.

For `Cc1ccc[n+](-c2nc3ccccc3nc2C(=C=[N-])C#N)c1`, the “activity, negative = active” value is inactive: -5.34%.

Take `CC(=O)OC[C@H]1O[C@@H](Sc2cccc3cccnc23)[C@H](OC(C)=O)[C@@H](OC(C)=O)[C@@H]1OC(C)=O`: the “activity, negative = active” value is inactive: 1.95%.

As for `CCOc1cccc(NC(=O)/C(C#N)=C/c2cccnc2)c1`, the “activity, negative = active” value was inactive: 7.72%.

Consider `Cc1cc(C)c(/C=C2\C(=O)Nc3ccccc32)[nH]1`, for which the Potency was active: 12.6 µM.

For the molecule `Cc1cc(C)n2c(SCC(O)=C(C#N)c3nc4ccccc4[nH]3)nnc2n1`, the “activity, negative = active” value is inactive: -28.8%.

With `COc1cccc(NC(=O)CSc2nc3ccccc3nc2N2CCOCC2)c1`, the “activity, negative = active” value is inactive: 0.947%.

As for `Cc1ccc(C)c(NC(=O)N2CC=C(c3c[nH]c4ccccc34)CC2)c1`, the Potency is active: 25.1 µM.

On to `CC(=O)OCC1OC(Sc2cccc3cccnc23)C(OC(C)=O)C(OC(C)=O)C1OC(C)=O` (configuration not stated), for which the “activity, negative = active” value is inactive: -1.2%.

As for `Cn1c2ccccc2c(=O)c2c(O)cccc21`, the “activity, negative = active” value is inactive: 23.5%.

In the case of `CCOc1ccc(CCNC(=O)CSc2cc(=O)n(C)c3ccc(Cl)cc23)cc1OCC`, the “activity, negative = active” value was inactive: 0.701%.

Turning to `CCCCn1c(N)c(N(CC(C)C)C(=O)Cc2ccc(S(=O)(=O)N3CCOCC3)s2)c(=O)[nH]c1=O`, the Potency was active: 25.1 µM.

As for `CSc1cccc(NC(=O)c2cc3c(COC(C)=O)cnc(C)c3oc2=O)c1`, the Potency is active: 10 µM.

On to `CCC(C)Sc1ccc(-c2nc3cc(C)ccn3c2NC2CCCCC2)cc1` (configuration not stated), for which the Potency was active: 11.2 µM.

For `COc1ccc(-n2nc3c(N4CCC(C(=O)N5CCC(C)CC5)CC4)nnc(C)c3c2C)cc1`, the “activity, negative = active” value is inactive: -7.16%.

`Cc1cc(/C=C2/NC(=O)NC2=O)c(C)n1-c1ccc(N2CCOCC2)cc1`: the “activity, negative = active” value is inactive: -14.2%.

In the case of `CCOC(=O)c1c(-c2ccc(OC)cc2)csc1/N=C/C1=C(O)CCCC1=O`, the Potency was active: 22.4 µM.

Take `C=CC[C@@H](CC(=O)N[C@H](CO)Cc1ccccc1)C(=O)N[C@H](COC(=O)[C@@H](CC=C)CC(=O)OC(C)(C)C)Cc1ccccc1`: the “activity, negative = active” value was inactive: 2.88%.

With `COc1ccc(/C=C(/NC(=O)c2ccccc2Cl)C(=O)NCCCC(=O)O)cc1`, the “activity, negative = active” value is inactive: -10.6%.

As to `O=C(C[C@H]1C/C=C\CC[C@@H](Cc2ccc(F)cc2)C(=O)O[C@H](c2ccccc2)CNC1=O)N[C@H](CO)Cc1ccccc1`, the “activity, negative = active” value was inactive: -5.99%.

Regarding `C/C(Sc1nnc(Cc2ccccc2)o1)=C(/O)c1ccccc1`, the “activity, negative = active” value was inactive: -9.86%.

Regarding `O=C1NN(c2ccccc2)C(=O)C1=Cc1ccccc1`, the “activity, negative = active” value was inactive: 4.27%.

On to `S=C(Nc1cccc2ccccc12)NN1CCCCCC1`, for which the Potency is active: 22.4 µM.

On to `CCc1cc2c(=O)c(-c3nc4ccccc4[nH]3)coc2cc1OC(=O)N1CCOCC1`, for which the “activity, negative = active” value was inactive: -2.38%.

On to `COc1ccc(-c2cc(C)no2)cc1S(=O)(=O)N1CCOc2ccccc21`, for which the “activity, negative = active” value was inactive: 6.69%.

Take `COc1cccc2c1cc1c(=O)n(CC(=O)N3CCN(c4cccc(C)c4C)CC3)nc(C)n12`: the “activity, negative = active” value is inactive: 1.77%.

For `O=C(Nc1cccc(C(F)(F)F)c1)/C(=C/c1ccco1)NC(=O)c1cccs1`, the “activity, negative = active” value is inactive: -17.9%.

With `CCN1C(=O)/C(=C/c2ccc(N3CCCC3)cc2)NC1=S`, the Potency was active: 25.1 µM.

Turning to `CC12CCC(C(=O)Nc3ccccc3Cl)(C(Br)C1=O)C2(C)C` (configuration not stated), the “activity, negative = active” value is inactive: -17.7%.

For the molecule `Cc1ccccc1NC(=O)Cn1nnc(C(=O)NCc2ccco2)c1N`, the “activity, negative = active” value is inactive: -0.739%.

For the molecule `CN1CCS/C1=C\C=C1/SC(=S)N(CC(=O)O)C1=O`, the “activity, negative = active” value was inactive: -13%.

For `CCC1CCCCN1CCCNC(=O)c1cc2c(Cl)nc3ccccc3c2s1` (configuration not stated), the “activity, negative = active” value is inactive: -13.2%.

As to `O=C(Cc1cccs1)N/N=C/C=C/c1ccco1`, the “activity, negative = active” value was inactive: -11.1%.

In the case of `O=C(CCN1C(=O)/C(=C\c2ccccc2)SC1=S)NCCCN1CCOCC1`, the “activity, negative = active” value was inactive: -0.715%.

With `Cc1ccc(S(=O)(=O)Nc2c(C)n(C)n(-c3ccccc3)c2=O)cc1`, the “activity, negative = active” value is inactive: -7.5%.

As to `O=C(C[C@H]1C/C=C\CC[C@H](Cc2ccc(F)cc2)C(=O)O[C@H](c2ccccc2)CNC1=O)N[C@H](CO)Cc1ccccc1`, the “activity, negative = active” value is inactive: -10.9%.

Take `Cc1ccc2c(Cl)c(C)c(N3CCOCC3)nc2n1`: the “activity, negative = active” value was inactive: 23.8%.

As for `C=CC[n+]1c(C)csc1Nc1ccc(C(=O)O)cc1`, the “activity, negative = active” value is inactive: 2.08%.
